Legend:
Experiment in all cases: flow cytometry on transfected Jurkat cells, anti-IgG-Fc detection (Fig. 3)
human KIR2DL1 = molecular target: T1, human KIR2DL1 (human, UniProt P43626 22-348)
T1 construct: whole, on cells

human KIR2DL3 = molecular target: T2, human KIR2DL3 (human, UniProt P43628 22-341)
T2 construct: whole, on cells

human KIR3DS1 = molecular target: T3, human KIR3DS1 (human, UniProt Q14943 22-382)
T3 construct: whole, on cells; also called KIR3DS01

Measured: binding result

Chain of human KIR3DS1 (Q14943 22-382): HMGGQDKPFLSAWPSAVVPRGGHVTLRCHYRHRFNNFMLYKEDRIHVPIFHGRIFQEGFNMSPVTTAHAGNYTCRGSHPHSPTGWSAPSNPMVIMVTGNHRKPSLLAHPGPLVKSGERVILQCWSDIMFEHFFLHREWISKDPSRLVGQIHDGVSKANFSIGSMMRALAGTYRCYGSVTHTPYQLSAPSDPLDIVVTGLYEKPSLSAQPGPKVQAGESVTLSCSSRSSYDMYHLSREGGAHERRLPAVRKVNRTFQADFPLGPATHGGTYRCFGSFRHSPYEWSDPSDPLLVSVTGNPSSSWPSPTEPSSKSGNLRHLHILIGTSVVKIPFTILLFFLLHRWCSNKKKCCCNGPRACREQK
Chain of human KIR2DL3 (P43628 22-341): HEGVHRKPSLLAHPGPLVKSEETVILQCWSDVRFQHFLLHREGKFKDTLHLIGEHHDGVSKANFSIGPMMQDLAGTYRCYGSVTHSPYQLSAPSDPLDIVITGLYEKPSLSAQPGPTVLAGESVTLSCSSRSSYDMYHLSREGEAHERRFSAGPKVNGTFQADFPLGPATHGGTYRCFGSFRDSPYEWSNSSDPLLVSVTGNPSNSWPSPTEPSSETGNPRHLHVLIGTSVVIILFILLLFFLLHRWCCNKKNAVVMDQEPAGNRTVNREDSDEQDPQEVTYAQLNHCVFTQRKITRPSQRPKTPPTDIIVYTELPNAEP
Chain of human KIR2DL1 (P43626 22-348): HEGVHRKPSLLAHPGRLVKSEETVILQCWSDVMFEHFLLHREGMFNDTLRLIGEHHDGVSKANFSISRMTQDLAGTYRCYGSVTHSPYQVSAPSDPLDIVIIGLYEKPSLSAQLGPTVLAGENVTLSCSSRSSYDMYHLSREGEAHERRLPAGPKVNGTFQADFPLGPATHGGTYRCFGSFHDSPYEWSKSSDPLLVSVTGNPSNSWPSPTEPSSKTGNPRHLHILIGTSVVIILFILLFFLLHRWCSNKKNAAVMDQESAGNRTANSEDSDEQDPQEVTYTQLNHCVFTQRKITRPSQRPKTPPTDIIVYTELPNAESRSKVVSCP

B1: KIR3DX1rep-IgG1-Fc (Fc fusion)
chain: GAQDKFSLSAWPSPVVPLGGRVTLSCHSHLRFVIWTIFQTTGTRSHELHTGLSNNITISPVTPEHAGTYRCVGIYKHASKWSAESNSLKIIVTGLFTKPSISAHPSSLVHAGARVSLRCHSELAFDEFILYKEGHIQHSQQLDQGMEAGIHYVEAVFSMGPVTPAHAGAYRCCGCFSHSRYEWSAPSDPLDIVITGKYKKPSLSTQVDPMMRLGEKLTLFCSSEISFDQYHLFRHGVAHGQWLSGGQRHREAFQANFSVGRATPVPGGTYRCYGSFNDSPYEWSAPSDPLQLYTTGNTKSTPLSFTESTPESDTPRPQGQSSNLH[human IgG1 Fc omitted]
notes: also called KIR3DX1rep-Fc; KIR3DX1repaired-IgG1-Fc
no binding: all assays above
